Like-named read-outs stand apart in the source and are kept apart here.
Test system: NCI-H322M
Type: cell-based
[1] = Table 29, Non-Small Cell Lung Cancer

GI50 (Homo sapiens, Non-Small Cell Lung Cancer) | Structure (SMILES) | GI50 [1]
> 100 µM | Nc1nc(N)c2c(CNc3ccc(C(=O)N[C@@H](CCC(=O)O)C(=O)O)cc3)c[nH]c2n1 [Compound 9] | 
 | COc1ccc(CCc2cn(Cc3ccccc3)c3nc(N)nc(C)c23)cc1 [Compound 113-118] | 74.7 µM
 | COc1ccccc1CCc1cn(Cc2ccccc2)c2nc(N)nc(C)c12 [Compound 113-148] | 10.1 µM
 | COc1cc(CCc2c[nH]c3nc(N)nc(C)c23)cc(OC)c1OC [Compound 113-154A] | 26.9 µM
